# From PubChem BioAssay AID1508642 (National Center for Advancing Translational Sciences (NCATS), 2021)
# About 200 (0.47%) of roughly 43,000 compounds were called active. Inconclusive results (about 12%) are left out. Calls come from the whole dose curve; as a rule, active = well fitted cell-killing curve with a large enough effect; inconclusive = small, poorly fitted or top-dose-only effect, or effect the other way; inactive = flat fitted curve, though single readings scatter. Some of the results follow.
# Assay: Cell viability qHTS assay in S16 Pmp22-F2sN cells; note: nearly all actives have a fitted effect of over 65% in size
# Conditions: S16 Pmp22-F2sN Schwann cells (luciferase reporters placed in the Pmp22 gene) viability, CellTiter-Glo, 24 h; series mostly up to 57.5 µM; activity change, negative = cytotoxicity: at the top concentration
# In short: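 Luminescence from CellTiter-Glo, read by CCD camera after a 15 min room-temperature incubation, served as the viability signal. Reporter Schwann cells (S16 Pmp22-F2sN) had been treated with pin-transferred compounds for 24 h at 37C.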
# % is set by controls: 0 for no effect and ±100 for the full control effect.
row,SMILES,"activity change, negative = cytotoxicity"
1,CCn1nc(C)c(CCN(C)C(=O)Nc2cc(OC)c(OC)c(OC)c2)c1C,inactive: -1.52%
2,Cc1ccc(N2CC(NC(=O)c3ccc(S(=O)(=O)N4CCOCC4)cc3)CC2=O)cc1 (configuration not stated),inactive: 3.44%
3,CCOC(=O)c1cnn(-c2ccc(C(=O)Nc3cccc(C(C)=O)c3)cc2)c1N,inactive: 1.34%
4,CCN(C(=O)Nc1cn(CC(C)C)c(=O)c2ccccc12)c1cc(C)ccc1C,inactive: 4.98%
5,Cc1ccc2nc(Nc3ccc(C)c(F)c3)c3nncn3c2c1,inactive: -5.63%
6,Cc1ccc(CNC(=O)CCn2cnc3ccccc3c2=O)cc1,inactive: -6.45%
7,Cc1c(Cl)cccc1NC(=O)C1CCN(c2ncnc3c2nc2n3CCCCC2)CC1,inactive: 8.13%
8,O=C(CCn1c(=O)c2cccn2c2cccnc21)N1CCN(c2ccccc2F)CC1,inactive: 5.91%
9,Fc1cccc(-c2nnn3c2nc(NCCc2ccccc2)c2ccccc23)c1,inactive: 11.7%
10,COc1ccc2cc(C(=O)NCc3ccc4c(c3)CCN4C(=O)c3ccc(F)cc3)[nH]c2c1,inactive: 4.42%
11,O=C(COCc1cc(-c2cccs2)on1)N1CCN(c2cccc(Cl)c2)CC1,inactive: -18.3%
12,CCOc1ccc(NC(=O)c2sc3nc4c(c(-c5ccc(OC)cc5)c3c2N)C(=O)CC(C)(C)C4)cc1,inactive: 14%
13,CCOc1ccc(-n2cc(-c3ccccc3)c3c(N4CCN(c5ccccc5OC)CC4)ncnc32)cc1,inactive: -0.234%
14,COC(=O)c1c(NC(=O)/C(C#N)=C/c2ccccc2)sc2c1CCC2,inactive: 3.6%
15,CCCCN(CC)C(=O)CSc1c2c(nc3ccc(Cl)cc13)CCCC2,inactive: 5.05%
16,Cc1oc(-c2ccc(Cl)cc2)nc1CSc1nc2ncccc2[nH]1,inactive: 5.55%
17,O=C(Nc1ccc2oc(-c3ccncc3)nc2c1)c1ccccc1Cl,inactive: -0.296%
18,COc1cccc(NC(=O)c2ccc(-c3nc(COc4ccccc4)c(C)o3)cc2)c1,inactive: 5.49%
19,O=C(OCc1cc(=O)n2nc(C3CCCCC3)sc2n1)c1ccc(F)cc1,inactive: 1.38%
20,CCOCCCNC(=O)CN1C(=O)COc2ccc(S(=O)(=O)N3CCCC3)cc21,inactive: -1.1%
21,COc1ccccc1Nc1cc(C(=O)NC2CCC(C)CC2)c2ccccc2n1 (configuration not stated),inactive: -14%
22,CCC(=O)N1c2ccccc2CC1C(=O)NCc1ccccc1Cl (configuration not stated),inactive: 9.78%
23,Cc1cccc(NC(=O)CCn2cnnn2)c1C,inactive: -3.67%
24,COc1cc(OC)c(NC(=O)CCc2c(C)nc3ncnn3c2C)cc1Cl,inactive: 10.5%

row,SMILES,"activity change, negative = cytotoxicity"
1,COc1ccc(-c2nc(CSCC(=O)NCCc3ccccc3)c(C)o2)cc1,inactive: -25.5%
2,CN(Cc1ccccc1)c1ccc(-c2nc(-c3ccccn3)no2)cc1[N+](=O)[O-],inactive: 2.78%
3,COc1cccc(N2CCN(C(=O)c3cc4cc5cc(C)ccc5nc4s3)CC2)c1,inactive: -3.38%
4,COc1ccc(Cn2cc(S(=O)(=O)c3ccc(Cl)cc3)c(=O)c3cc4c(cc32)OCO4)cc1,inactive: 2.19%
5,O=C(NC1(C(F)(F)F)C(=O)Nc2c1c(=O)[nH]c(=O)n2-c1ccc(Cl)cc1)c1ccccc1F (configuration not stated),inactive: 1.8%
6,CNC(=O)C1CCC(Cn2c(=O)c3sccc3n(CC(=O)NCc3ccc(OC)cc3)c2=O)CC1 (configuration not stated),inactive: 1.07%
7,COc1ccccc1NC(=O)c1c(NC(=O)COc2ccccc2)sc2c1CCCCC2,inactive: 19.7%
8,COc1ccc2cc(-c3nc(Cl)c4c5c(sc4n3)CC(C)CC5)c(=O)oc2c1 (configuration not stated),inactive: 12.6%
9,O=C(Cn1c(=O)n(-c2cccc(Cl)c2)c(=O)c2sc3ccccc3c21)NC1CCCCC1,inactive: 15.2%
10,Cc1ccc(OCC(=O)Nc2cccc(-c3nc4ccccc4o3)c2C)cc1C,inactive: -3.8%
11,Cc1cc2nc(-c3cccc(NC(=O)C(C)C)c3C)oc2cc1C,inactive: 2.53%
12,O=C(c1cc(-c2ccccc2O)on1)N1CCCCC1,inactive: 3.9%
13,O=C(c1ccc2c(c1)N(Cc1ccccc1F)C(=O)c1ccccc1S2(=O)=O)N1CCN(c2ccccc2F)CC1,inactive: -2.84%
14,CCOc1ccc(C(=O)Nc2ccc3nn(-c4ccc(OC)c(Cl)c4)nc3c2)cc1,inactive: 5.73%
15,CCN(CC)C(=O)c1sc2c(c1C)c(=O)n(CCc1ccccc1)c(=O)n2Cc1ccc(F)cc1Cl,inactive: 4.66%
16,CCc1ccc(O)c(C(=O)c2cnc3cc(-c4ccc(C)cc4)nn3c2)c1,inactive: 17.4%
17,N#Cc1c(C(F)(F)F)cc(-c2cccs2)nc1SCC(=O)Nc1ccccc1F,inactive: 16%
18,Cc1ccc(Cl)cc1NC(=O)Cn1c(=O)n(Cc2ccccc2)c(=O)c2oc3ccccc3c21,inactive: 11.7%
19,Cc1ccc(CNC(=O)CCc2c(C)nc3nc(C)nn3c2C)cc1,inactive: -13%
20,Cc1ccc(OCC(=O)Nc2cccc(OCc3cc(=O)n4cccc(C)c4n3)c2)cc1C,inactive: -6.95%
21,Cc1ccc(CCNC(=O)CCCn2c(=O)c3ccccc3n(Cc3ccccc3C#N)c2=O)cc1,inactive: 7.91%
22,CCn1cc2c(n1)-c1c(oc(C(=O)Nc3cccc(C)c3C)c1C)CC2,inactive: 6.92%
23,CCOc1ccc(-c2cc(C(=O)NCc3ccccc3Cl)c3ccccc3n2)cc1,inactive: -6.06%
